For 111 molecules, z-score results are on record in PubChem BioAssay AID488969 (Vanderbilt High Throughput Screening Facility, 2010).

Where “and” joins values, the source holds several entries; their conditions need not be identical. Equal entries are not always repeated. Over roughly 110,000 compounds, “z-score” has its median near -0.1; the highest 2% begin near 2. The list shows a part of the results.

The target in the experiment is Metabotropic glutamate receptor 8 (Rattus norvegicus) (UniProt P70579). The experiment can be described thus: rat mGluR8 modulators via GIRK flux, primary screen, cell-based, thallium flux, HTS (AID 488969). The following applies: HEK293 rat mGluR8, GIRK (G protein-gated inwardly rectifying potassium channel) thallium flux, FluoZin2; at 10 µM; stronger effect = higher value; submaximal glutamate (EC20) added with thallium.
Chain of UniProt P70579 (P70579 whole entry, looked up): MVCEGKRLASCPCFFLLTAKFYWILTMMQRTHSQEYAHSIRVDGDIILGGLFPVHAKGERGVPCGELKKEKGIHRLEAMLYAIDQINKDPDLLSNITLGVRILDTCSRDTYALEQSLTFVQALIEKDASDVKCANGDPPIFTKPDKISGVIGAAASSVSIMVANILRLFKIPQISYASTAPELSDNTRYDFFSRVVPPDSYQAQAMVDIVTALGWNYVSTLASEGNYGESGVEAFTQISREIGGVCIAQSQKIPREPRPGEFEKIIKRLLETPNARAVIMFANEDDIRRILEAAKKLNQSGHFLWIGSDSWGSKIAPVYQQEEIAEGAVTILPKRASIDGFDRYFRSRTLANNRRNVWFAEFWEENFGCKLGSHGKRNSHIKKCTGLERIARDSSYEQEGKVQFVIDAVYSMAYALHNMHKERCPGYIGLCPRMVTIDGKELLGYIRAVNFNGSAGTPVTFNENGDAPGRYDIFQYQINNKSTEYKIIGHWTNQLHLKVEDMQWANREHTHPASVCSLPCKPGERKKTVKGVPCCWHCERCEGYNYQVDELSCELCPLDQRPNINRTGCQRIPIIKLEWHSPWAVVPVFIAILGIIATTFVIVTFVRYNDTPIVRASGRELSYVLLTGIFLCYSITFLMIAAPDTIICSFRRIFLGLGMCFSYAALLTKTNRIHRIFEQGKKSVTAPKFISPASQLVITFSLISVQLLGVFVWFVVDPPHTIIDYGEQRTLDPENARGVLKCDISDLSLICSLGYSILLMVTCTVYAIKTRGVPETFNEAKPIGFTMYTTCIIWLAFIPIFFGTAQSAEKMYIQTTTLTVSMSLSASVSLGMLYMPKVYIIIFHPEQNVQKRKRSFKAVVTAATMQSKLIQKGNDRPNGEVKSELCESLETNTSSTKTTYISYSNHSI
Take `CC1=NN(c2nc(-c3ccc(F)cc3)cs2)C(=O)C1`: the z-score was 0.0382.
The value for `O=C(CCC1CCCCC1)NNC(=O)NC12CC3CC(CC(C3)C1)C2` was 0.138; that for `O=C(Oc1ccc(N(Cc2cccs2)C2=NS(=O)(=O)c3ccccc32)cc1)c1ccc(Cl)cc1` was -0.103.
Molecule `O=C1CN(C(=O)c2cc([N+](=O)[O-])ccc2Cl)C(c2ccccc2)c2cc(F)ccc2N1` (stereo unspecified) gave a z-score of -0.548.
As for `O=[N+]([O-])c1cccc(S(=O)(=O)N2CCCC2)c1`, the z-score is -0.0414.
The value for `O=C(CSc1nc2ccccc2[nH]1)N1c2ccccc2Sc2ccccc21` was -0.394; that for `CC(C)(C)NC(=O)C(c1ccc(F)cc1)N(Cc1ccco1)C(=O)Cn1nnc(-c2cccs2)n1` (stereo unspecified) was -0.585; that for `Cc1ccccc1NS(=O)(=O)c1ccc(OCC(=O)NCc2cccnc2)cc1` was -0.241.
Take `Cc1csc(NC(=O)c2ccccc2[N+](=O)[O-])n1`: the z-score amounted to 0.963.
The figure for `COc1ccc2c(c1)CCN=C2Cc1ccc(OC)c(OC)c1` is -0.0417.
Consider `CCCCCCCCCCn1cc(C(C)=O)c(=O)[nH]c1=O`, for which the z-score is -0.201.
`CC(C)N1C(=O)C2C(C(=O)NC3CCCCC3)C3C=CC2(O3)C1C(=O)NC1CCCCC1` (stereo unspecified) returned a z-score of 0.882.
In turn, `COc1cc(/C=C2/SC(=O)N(Cc3ccccc3Cl)C2=O)ccc1OCc1ccncc1` had a z-score of -0.0596.
The figure for `CCOC(=O)c1c(-c2ccccc2)csc1NC(=O)CCN1C(=O)c2ccccc2C1=O` is -0.51; for `O=C(O)c1cc(N/N=C/c2ccc3c(c2)OCCO3)ccc1Cl` it is -0.137; for `O=C(Cc1ccccc1)NCCSCc1ccc(Cl)cc1` it is -0.37.
In the case of `CCn1cc(C(=O)NCc2ccco2)c(=O)c2cc(S(=O)(=O)N3CCCCCC3)ccc21`, the z-score was -0.541.
For `COc1cc(CN2CCN(C(=O)CC(C)C)CC2)cc(OC)c1OC`, the z-score is -0.0906.
As to `COC(=O)c1c(-c2cccc3ccccc23)csc1NC(=O)Cc1ccc(OC)c(OC)c1`, the z-score turned out to be 0.114.
As to `COc1ccc(N2C(=O)CSC23C(=O)Nc2ccccc23)cc1` (stereo unspecified), the z-score is -0.395.
`c1ccc(CN(Cc2cccs2)C(c2cccs2)c2nnnn2C2CCCC2)cc1` (stereo unspecified): the z-score is -0.0121.
The molecule `CCOc1ccc(CC2CCC(=O)NC2=O)cc1` (stereo unspecified) had a z-score of -0.138.
The value for `Cc1cc(C)cc(N(C(=O)CNC(=O)c2cccs2)C(C(=O)NC2CCCC2)c2cccnc2)c1` (stereo unspecified) was -0.102; that for `CC1CCN(Cc2nnnn2-c2cccc([N+](=O)[O-])c2)CC1` was -0.243; that for `CCN(Cc1ccccc1)C(=O)CN1C(=S)NC(C)(C)CC1C` (stereo unspecified) was -0.0723.
The value for `O=C(CCSc1nnc(-c2ccncc2)o1)Nc1ccc(Cl)cc1` was -1.35; that for `CCOC(=O)C1CCCN(c2ncnc3c2oc2ccccc23)C1` (stereo unspecified) was -0.619.
The value for `CC(C)C(=O)Nc1cccc(-c2cn3ccccc3n2)c1` was -0.552.
Regarding `CCCSC1=C(C#N)C(c2cccnc2)C(C(=O)OCC)=C(c2ccccc2)N1` (stereo unspecified), the z-score is -0.449.
Take `COc1ccc(CCCC(=O)N/N=C/c2cccc(OC)c2O)cc1C`: the z-score was -0.351.
The molecule `COc1ccc(/C=N/Nc2ncnc3c2[nH]c2ccccc23)c(OC)c1OC` had a z-score of -0.119.
The figure for `COC(=O)c1ccc(NC(=S)NCCc2cccc(C)c2)cc1` is -0.0498.
As to `COc1ccc(-c2c[n+]3c4n2CCCCC4=C(c2ccc(Br)cc2)C3)cc1`, the z-score was 1.54.
In turn, `COc1cc(OC)c(C2=NOC(C(=O)Nc3c(C)nn(CC(=O)N4CCCC4)c3C)C2)cc1Cl` (stereo unspecified) yielded a z-score of -0.14.
In turn, `O=S1(=O)C=C(SCCN2CCCC2)c2ccccc21` yielded a z-score of -0.196.
Consider `COC(=O)C1(Cc2ccccc2)NC(c2ccc(F)cc2)C2C(=O)N(C)C(=O)C21` (stereo unspecified), for which the z-score came out at 0.233.
As for `Cc1cccc(C)c1NC(=O)CCCSc1nnc(-c2ccc(F)cc2)n1-c1ccccc1`, the z-score is -0.0409.
The value for `O=C(CNC1CCCCC1)N1CCc2ccccc2C1` was 0.0605.
Turning to `CCCCNC(=S)Nc1ccc(Cl)cc1`, the z-score was found to be 1.73.
In turn, `COc1cccc2c1C(=O)CC2NC(=O)C(F)(F)F` (stereo unspecified) yielded a z-score of 0.032.
Molecule `CCn1nc(NC(=O)c2cccnc2)c2cc3cccc(C)c3nc21` came in with a z-score of -0.0388.
As for `NC(=O)C1CC(=O)N(Cc2ccc3c(c2)OCO3)C(=Nc2ccccc2)S1` (stereo unspecified), the z-score was found to be 0.252.
Consider `N#CC1=C(N)S[C@@H](C(=O)c2ccc(F)cc2)[C@@H]1c1cccs1`, for which the z-score is -0.589.
As for `O=S(=O)(c1ccccc1)c1nc(-c2ccco2)oc1N1CCOCC1`, the z-score came to 0.143.
Regarding `COc1cccc(NC(=O)N(Cc2ccco2)C(C)c2cccs2)c1` (stereo unspecified), the z-score was -0.441.
Molecule `O=C(Nc1ccc(O)cc1C(=O)O)c1ccc2c(c1)C(=O)N(Cc1ccco1)C2=O` registered a z-score of -0.74.
Take `CCn1c(C)c(/C=N/Nc2nc3ccccc3s2)c2ccccc21`: the z-score was 0.741.
In turn, `O=C(CC1N=C2c3ccccc3N=C(SCc3ccc(F)cc3)N2C1=O)NCc1ccco1` (stereo unspecified) showed a z-score of -0.245.
Regarding `Cc1nn(C)cc1/C=N/NC(=O)C1(O)c2ccccc2-c2ccccc21`, the z-score is -0.297.
Molecule `O=c1c(Cl)nc2cc(Cl)ccc2n1CCNc1ncc(C(F)(F)F)cc1Cl` displayed a z-score of 0.248.
The figure for `Cc1ccc(S(=O)(=O)C(C#N)c2nc3ccccc3nc2N2CCN(C)CC2)cc1C` (stereo unspecified) is -0.43; for `CC(C)CNC(CC(=O)Nc1cccc([N+](=O)[O-])c1)C(=O)O` (stereo unspecified) it is -0.184.
The figure for `O=C(c1ccco1)N1CCN=C1SCc1cccc(F)c1` is -0.38; for `Fc1ccc(SCCc2ccncc2)cc1` it is 0.0681 and -0.354; for `Cc1ccc(-c2nnc(Cc3ccc(Cl)cc3)o2)cc1` it is -0.239.
In turn, `COc1cc2[nH]c(=S)n(NC(=O)CC(C)C)c(=O)c2cc1OC` returned a z-score of -0.0233.
The figure for `Cc1ccc(-n2nc(C(=O)O)nc2-c2ccccc2)cc1` is -0.106; for `CN1C(=O)c2ccccc2C(C(=O)NCC2CCCO2)C1c1c[nH]c2ccccc12` (stereo unspecified) it is -1.14; for `O=C(CN1CCN(Cc2ccc3c(c2)OCO3)CC1)Nc1ccc2c(c1)OCCO2` it is 0.156.
The figure for `O=C(NCc1ccccn1)C1CC(c2ccc(F)cc2)=NO1` (stereo unspecified) is 0.284; for `c1ccc(Cc2nc3ccccc3n2Cc2ccccc2)cc1` it is -0.536; for `O=C(/C=C/c1cccs1)Nc1ccc(Br)cn1` it is -0.222.
Consider `CCc1ccccc1S(=O)(=O)Cc1ccc(C(=O)NC(C)C)o1`, for which the z-score was -0.288.
As to `COc1ccc(N=c2ssnc2Cl)cc1`, the z-score is -0.257.
`CCC(C)Sc1nc2c([nH]c3ccccc32)c(=O)n1C` (stereo unspecified) showed a z-score of -0.538.
In the case of `CCOC(=O)c1cc2c(=O)n3ccccc3nc2n(C(C)C)c1=NC(=O)c1ccncc1`, the z-score is -0.585.
The molecule `Cn1c(SCC(=O)OCc2ccccc2)nnc1-c1ccco1` gave a z-score of -0.775.
`O=C(CN1CCN(S(=O)(=O)c2ccc(Br)cc2)CC1)N/N=C/c1cccnc1`: the z-score is -0.15.
The molecule `CC(C)NC(=O)CSCc1ccccc1Cl` gave a z-score of 0.666.
As for `O=C(NCCS(=O)CCNC(=O)C(F)(F)F)C(F)(F)F`, the z-score came to 0.174.
For the molecule `CCn1cc(NC(=O)Nc2ccccc2C(=O)OC)c(C(N)=O)n1`, the z-score is 0.315.
As to `COc1ccc2c(c1OC)CCC2=O`, the z-score is 0.544.
`CCC(C)NC(=O)CSc1nnc(-c2cc(-c3ccc(C)cc3)nc3ccccc23)n1N` (stereo unspecified) returned a z-score of -0.28.
In turn, `CN(C)c1cc[n+](Cc2c(Cl)cccc2Cl)cc1` gave a z-score of 0.00132.
`CNc1nc(Nc2ccc(Br)cc2)nc(N)c1[N+](=O)[O-]`: the z-score was -0.169.
For the molecule `CCC(CC)n1[nH]c(=O)c2c(C)cc(C)nc21`, the z-score is 0.0952.
The molecule `Cn1cnc([N+](=O)[O-])c1Nc1cccc(O)c1` yielded a z-score of -0.162.
`CCOC(=O)CNC(=O)c1ccc2[nH]c3c(c2c1)CCCC3` returned a z-score of -0.279.
Take `O=C(CCC(=O)OCc1ccc(Br)cc1)Nc1ccccc1`: the z-score was -0.0471.
With `CC(=O)C1C(c2ccccc2Cl)NC(=O)NC1(O)C(F)(F)F` (stereo unspecified), the z-score amounted to 1.98.
In turn, `Cc1nnc(C)c2c(C)n(Cc3ccc4c(c3)OCO4)c(C)c12` showed a z-score of -0.126.
The value for `CC(C)(C)NC(=O)/C(=C\c1ccco1)NC(=O)c1cccs1` was -0.374.
The figure for `CCN1C(=O)C(O)(CC(=O)c2ccccn2)c2ccccc21` (stereo unspecified) is 0.569; for `COc1ccc(/C=C2\Sc3ccc(C(=O)N4CCc5ccccc5C4)cc3N(C)C2=O)cc1` it is -0.13; for `CC(C)N(C(=O)c1sc2cc([N+](=O)[O-])ccc2c1Cl)C(C)C` it is -0.641.
In the case of `N#Cc1nc(-c2ccco2)oc1NCCN1CCOCC1`, the z-score is -0.639.
On to `CCN(CC)S(=O)(=O)c1ccc(NC(=O)COC(=O)c2ccc(-n3nc(C)cc3C)cc2)cc1`, for which the z-score turned out to be 0.0126.
As to `COc1cccc(C(NC(=O)c2ccccc2F)NC(=O)c2ccccc2F)c1`, the z-score is -0.377.
`O=C(O)C1C2C=CC(C2)C1C(=O)Nc1cccc(C(=O)N2CCCCC2)c1` (stereo unspecified) displayed a z-score of -0.321.
The figure for `COc1cccc(OC)c1C(=O)Nc1cc(Cl)ccc1N1CCOCC1` is 0.304.
The molecule `COc1ccc(CNC2CCCC2)c(OC)c1OC` had a z-score of -0.0468.
On to `O=S(=O)(/N=C(/Nc1cccc2ccccc12)c1ccccc1)c1cccs1`, for which the z-score was -0.224.
Regarding `COc1c(Cl)cnn(-c2ccccc2)c1=O`, the z-score is -0.114.
For `COc1cc(/C=N/S(=O)(=O)CCc2ccccc2)cc(OC)c1O`, the z-score is -0.399.
The figure for `COc1ccccc1N(CC(=O)Nc1ccccc1C(=O)NCC(C)C)S(C)(=O)=O` is -0.18.
The molecule `CCC12CN3CCN(CC(C3)/C1=N\NC(=O)Nc1ccccc1)C2` came in with a z-score of -0.0852.
In turn, `C(=N\N1CCN(Cc2cccc3ccccc23)CC1)/c1cccnc1` displayed a z-score of -0.607.
For the molecule `Cc1nc2c3cc(F)ccc3n(Cc3ccccc3F)c2s1`, the z-score came to 0.00664.
In turn, `O=C(COc1ccccc1)Nc1ccc(OC(F)(F)C(F)F)c(NC(=O)COc2ccccc2)c1` gave a z-score of -0.29.
Take `CSc1ccccc1NC(=O)c1cc(C)on1`: the z-score was -0.0358.
The molecule `Cc1ccc(NC(=O)NC(=O)CSc2nnc(-c3ccc(OC(F)F)cc3)n2N)c(C)c1` registered a z-score of -1.61.
Take `CC(=O)c1c(O)cc2n(c1=O)-c1ccc(Cl)cc1C2(C)C`: the z-score is -1.61.
`CCCCOC(=O)CSc1nc2c(cc1C#N)C(=O)CC(C)(C)C2` yielded a z-score of -1.74.
The figure for `COc1ccccc1NC(=O)N(CCN1CCCC1)Cc1cc2cc(C)ccc2[nH]c1=O` is -0.065; for `Cc1nc(CNS(=O)(=O)c2cccnc2)cs1` it is 0.571; for `O=C(CNC(=O)c1ccccc1)NCC(=O)OCc1ccc(Cl)cc1` it is -0.177.
`Cc1cc(C)c2c(C)nn(-c3ccccc3)c2n1` displayed a z-score of -0.275.
`O=C(/C=C/Nc1ccc(F)c(Cl)c1)c1ccco1`: the z-score was 0.442.
In the case of `CCC(=O)N1CCN(CCN=CC2=C(O)CC(C)(C)CC2=O)CC1`, the z-score is -0.167.
For `COc1ccc(/C=C(\C#N)C(=O)N2CCOCC2)cc1Br`, the z-score is -0.62.
`CCCCn1c(SCC(=O)NCc2ccco2)nc2cc(S(N)(=O)=O)ccc21` displayed a z-score of -0.285.
